The whole screen tested about 360,000 compounds, of which about 25,000 (6.9%) were called active. Inconclusive results, whose numbers are uncertain, are shown with a selection of clear calls. The call rests on the fitted dose curve; in most records, active means well fitted inhibition curve with a large enough effect; inconclusive means small, poorly fitted or top-dose-only effect; inactive means flat fitted curve, though single readings scatter. Potencies beside an inconclusive call are fits to weak or partial responses and may not hold up.
The molecules below were run against Luciferin 4-monooxygenase (Photinus pyralis) (UniProt P08659) (assay: qHTS profiling assay for firefly luciferase inhibitor/activator using purifed enzyme and Km concentrations of substrates (counterscreen for miR-21 project)). Conditions: purified FLuc, luminescence inhibition; series mostly up to 57.5 µM.
Method in brief: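 Biochemical qHTS of compounds, final roughly 60 µM downward over six points, against 10 nM purified firefly luciferase using Km concentrations of substrates (10 uM D-luciferin, 10 uM ATP) in Tris acetate pH 7.5 buffer; luminescence output.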
Further: nearly all actives have a fitted effect of over 55% in size.
Potency means the concentration at half of the fitted maximal effect; tags describe the fitted curve by direction and shape.

Chain of UniProt P08659 (P08659 whole entry, looked up): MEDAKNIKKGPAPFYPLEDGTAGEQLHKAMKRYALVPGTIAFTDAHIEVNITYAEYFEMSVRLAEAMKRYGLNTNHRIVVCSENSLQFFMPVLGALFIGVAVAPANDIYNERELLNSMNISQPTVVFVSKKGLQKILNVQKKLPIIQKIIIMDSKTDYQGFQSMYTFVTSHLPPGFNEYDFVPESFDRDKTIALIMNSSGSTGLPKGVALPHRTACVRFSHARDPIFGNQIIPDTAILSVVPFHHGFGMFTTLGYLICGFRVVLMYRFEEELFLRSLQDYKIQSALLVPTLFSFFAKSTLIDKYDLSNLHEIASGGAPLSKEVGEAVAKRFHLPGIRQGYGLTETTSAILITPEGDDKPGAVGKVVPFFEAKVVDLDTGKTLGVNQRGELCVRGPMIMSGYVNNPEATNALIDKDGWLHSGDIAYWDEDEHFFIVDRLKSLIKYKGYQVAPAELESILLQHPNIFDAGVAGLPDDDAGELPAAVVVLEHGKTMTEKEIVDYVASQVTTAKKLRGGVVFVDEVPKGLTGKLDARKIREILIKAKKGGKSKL

Question: How did the Potency turn out when `CCOc1cc(C(=O)N[C@@H](C)C(=O)N2CCC3(CC2)NCCc2[nH]cnc23)cc(OCC)c1OCC` was run?
Answer: inactive

Question: Which Potency does the source give for `CCN(CC)CCN1C(=O)C(=O)/C(=C(/O)c2cnn(-c3ccccc3)c2C)C1c1cccs1` (centres undefined) here?
Answer: active: 21.3 µM

Question: With `Nn1cnnc1SCC(=O)Nc1ccc2c(c1)OCCO2` as the molecule, how does the Potency read?
Answer: inconclusive: 37.9 µM [inhibitor, partial curve, poor fit]

Question: Which Potency does the source give for `Cc1cc(Br)cc2c(C(=O)OCC(=O)c3ccccc3)cc(-c3ccccc3)nc12` here?
Answer: inactive

Question: With `CC(C)[C@H](NC(=O)Nc1ccc(Oc2ccccc2)cc1)C(=O)O` as the molecule, how does the Potency read?
Answer: active: 23.9 µM

Question: `O=C(Nc1nnc(-c2ccco2)s1)C1CCCCC1` was tested. Which Potency did it give?
Answer: inconclusive: 2.39 µM [inhibitor, full curve]

Question: With `CCOC(=O)C1CCCN(Cc2ccc(OCc3ccccc3)cc2)C1` (centres undefined) as the molecule, how does the Potency read?
Answer: inconclusive: 30.1 µM [inhibitor, partial curve, poor fit]

Question: How did the Potency turn out when `C/C(=N\Nc1ccccc1C(=O)O)c1ccncc1` was run?
Answer: active: 10.7 µM

Question: `Cc1cccc(Cn2cnc3c(sc4nc(C)cc(C)c43)c2=O)c1` was tested. Which Potency did it give?
Answer: inactive

Question: How did the Potency turn out when `Cc1nn(-c2ccccc2)c(C)c1NC(=O)COC(=O)c1cccc(OC(F)F)c1` was run?
Answer: inactive

Question: With `CCN(Cc1ccccc1)C(c1cc2ccc(C)cc2[nH]c1=O)c1nnnn1CCOC` (centres undefined) as the molecule, how does the Potency read?
Answer: inactive

Question: `COC(=O)c1ccc([C@H]2Nc3ccc(S(=O)(=O)Nc4cccc(C)c4)cc3[C@H]3C=CC[C@H]32)cc1` was tested. Which Potency did it give?
Answer: inconclusive: 23.9 µM [inhibitor, partial curve, poor fit]

Question: How did the Potency turn out when `CC1(C)CC(=O)C=C(c2cccc3c2sc2ccccc23)C1` was run?
Answer: inconclusive: 14.1 µM [inhibitor, partial curve, poor fit]

Question: `COc1ccccc1C1CC(=O)N(c2cccc(C(F)(F)F)c2)C2=C1C(=O)OC2` (centres undefined) was tested. Which Potency did it give?
Answer: inactive

Question: With `Clc1nc(CN2CCCCC2)nc2sc3c(c12)CCC3` as the molecule, how does the Potency read?
Answer: inconclusive: 30.1 µM [inhibitor, partial curve, poor fit]

Question: How did the Potency turn out when `Cc1ccc(C)c(OCc2cc(C(=O)N3CCN(c4ccccc4)CC3)no2)c1` was run?
Answer: active: 19 µM

Question: `O=C(COC(=O)Cc1cccs1)Nc1ccc(OC(F)(F)F)cc1` was tested. Which Potency did it give?
Answer: inconclusive: 37.9 µM [inhibitor, partial curve, poor fit]

Question: With `COc1cc(/C=C2/C(=N)N3N=C(CC(=O)N4CCOCC4)SC3=NC2=O)ccc1OCc1ccc(F)cc1` as the molecule, how does the Potency read?
Answer: inconclusive: 26.9 µM [inhibitor, partial curve, poor fit]

Question: How did the Potency turn out when `COc1ccc(C2=NOC(COc3ccc4c(C)cc(=O)oc4c3)C2)c(OC)c1` (centres undefined) was run?
Answer: inconclusive: 23.9 µM [inhibitor, partial curve, poor fit]
